The results in this text go back to PubChem BioAssay AID328 (DTP/NCI, 2004).

The structures appear in SMILES notation. Inconclusive results and toxic doses are left out. Not every entry of the source has a single result; some have several. This list holds those alone. The source may hold further records. The values listed for one entry differ for a reason that is not stated; dose, time, organism, isomer or construct need not be as stated for each record.

This assay deals with BDF1 mice, P388 leukemia ip, median survival T/C. Description: NCI In Vivo Anticancer Drug Screen. Data for tumor model P388 Leukemia (intraperitoneal) in B6D2F1 (BDF1) mice. The conditions noted are these: endpoint: median survival time, higher = longer survival. In a few lines: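 Each value expresses how treatment altered survival: treated-mouse outcome over vehicle-mouse outcome, both groups bearing the transplanted tumour.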

In the case of `COc1cc2c[n+](C)c3c4cc5c(cc4ccc3c2cc1OC)OCO5`, the T/C reads like this: (dose: 2.0 mg/kg/injection, schedule: Q01DX009 (ip), vehicle: water) 122 % of control and 165 % of control; (dose: 4.0 mg/kg/injection, schedule: Q01DX009 (ip), vehicle: water) 104 % of control and 180 % of control; (dose: 8.0 mg/kg/injection, schedule: Q01DX009 (ip), vehicle: water) 122 % of control and 190 % of control.
With `Nc1ccc(C(=O)Nc2ccc(N(CCCl)CCCl)cc2)cc1`, the T/C (dose: 25.0 mg/kg/injection, schedule: Q01DX009 (ip), vehicle: saline) is 109 % of control and 166 % of control.
In the case of `COc1cccc2c1C(=O)c1c(O)c3c(c(O)c1C2=O)C[C@@](O)(C(=O)CO)C[C@@H]3OC1CC(NC(=S)Nc2ccc3ccccc3c2)C(O)C(C)O1` (some centres not stated), the T/C (dose: 12.5 mg/kg/injection, schedule: Q01DX009 (ip), vehicle: saline) was 94 % of control and 150 % of control.
With `O=S(=O)(Sc1ccc(N(CCCl)CCCl)cc1)c1ccc(N(CCCl)CCCl)cc1`, the T/C (dose: 200.0 mg/kg/injection, schedule: Q01DX009 (ip), vehicle: saline with Tween-80) is 115 % of control and 150 % of control.
On to `Nc1nc(N)c2c(Cl)c(CNc3ccc(Cl)c(Cl)c3)ccc2n1`, for which the T/C (dose: 200.0 mg/kg/injection, schedule: Q04DX003 (ip), vehicle: water) was 102 % of control and 157 % of control.
